In patent US20260132214A1 (JECHO LABORATORIES, published 2026):

B1: P17 anti-GPC3 scFv-Fc (Fc fusion)
VH: [no letters for about 100 residues]EAPYSSGWSHYYYGMDVWGQGTTVTVSS
VL: QSVLTQPPSVSGAPGQRVTISCTGSSSGYDVHWYQQLPGRAPKLLIYGSNNRPSGVPDRFSGSNSGTSASLAITGLQAEDEADYYCQSYDSSLNAIFGGGTKLTVL
notes: scFv-Fc, human IgG1 constant regions
B2: 59 anti-GPC3 scFv-Fc (Fc fusion)
VH: [no letters for about 100 residues]ASGRVTDAFDIWGQGTMVTVSS
VL: QAVLTQPSSLSASPGASASLTCTLRSGINVVPYRIYWYQQKPGSPPQFLLNYRSDSDNYQGSGVPSRFSGSKDTSANAGILLISGLQSEDEADYYCLTWHSDSWVFGGGTKLTVL
notes: as for B1

What was measured:
[1] = target: T1, Glypican 3 Protein, Human, Recombinant (His Tag) (Sino Biological, Cat #10088-H08H) (human, UniProt P51654 25-559); assay: Octet QKe BLI, antibody on AHC probe, antigen in solution, 1:1 fit
T1 construct: Bought recombinant protein; also called Hu-GPC3 (10088-H08H); human GPC3; not shown: His tag
T1 sequence (P51654 25-559 limits assumed): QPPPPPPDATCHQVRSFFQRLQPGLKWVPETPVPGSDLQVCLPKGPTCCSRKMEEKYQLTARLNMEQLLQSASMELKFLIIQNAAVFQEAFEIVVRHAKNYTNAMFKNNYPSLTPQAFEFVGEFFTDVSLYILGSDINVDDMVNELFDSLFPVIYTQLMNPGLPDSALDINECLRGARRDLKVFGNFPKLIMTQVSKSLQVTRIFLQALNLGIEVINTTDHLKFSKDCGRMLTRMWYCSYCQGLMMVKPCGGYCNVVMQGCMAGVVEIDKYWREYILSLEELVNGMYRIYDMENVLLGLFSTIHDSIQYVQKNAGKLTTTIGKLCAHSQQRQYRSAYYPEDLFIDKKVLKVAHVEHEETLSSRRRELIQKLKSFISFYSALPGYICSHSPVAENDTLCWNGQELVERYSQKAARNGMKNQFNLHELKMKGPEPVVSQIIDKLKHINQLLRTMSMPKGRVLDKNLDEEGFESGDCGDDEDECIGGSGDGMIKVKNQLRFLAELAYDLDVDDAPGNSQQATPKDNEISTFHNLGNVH

Cy-GPC3 (GP3-C5225) = Cy-GPC3 (GP3-C5225) (Cy (so in the source)); assay: as above

Binder	Kd [1]	Kd (Cy-GPC3 (GP3-C5225))
B1	9.1 nM	6.01 nM
B2	11.3 nM	6.49 nM
